According to PubChem BioAssay AID1508623 (National Center for Advancing Translational Sciences (NCATS), 2021):
About 450 (0.94%) of roughly 48,000 compounds were called active. Roughly 19% stayed inconclusive and do not appear here. The call rests on the fitted dose curve; in most records, active means well fitted inhibition curve with a large enough effect; inconclusive means small, poorly fitted or top-dose-only effect; inactive means no such curve, though single readings can be large or run the other way. The list shows a part of the results.

assay: Primary qHTS for Identification of Small Molecule Inhibitors of Huntingtin Promoter Activity; conditions: HEK293 HTT promoter firefly luciferase reporter (activity 0% = vehicle and -100% = no light), 24 h; series mostly up to 57.5 µM; activity change, negative = inhibition: at the top concentration; further: nearly all actives have a fitted effect of over 50% in size
Summary of the method: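 Firefly luciferase readout (Dual-Glo, 10 min RT) after 24 h, 37 °C compound exposure (final up to 57.5 uM) of HEK293 reporter cells cultured 24 h beforehand; PTC124 at 50 uM final as control inhibitor; activity scaled vehicle 0%, zero RLU -100%.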
Potency means the concentration at half of the fitted maximal effect.

Compound | activity change, negative = inhibition | Potency
Cc1oc2ncnc(N3CCCCC3)c2c1C(=O)NCC1CCN(Cc2cccc(F)c2)CC1 | inactive: 0.749% | 
COC(=O)c1c(Cl)c(Cl)c(C(=O)OC)c(Cl)c1Cl | inactive: 9.32% [at 116 µM] | 
COC(=O)c1ccc(OCC2c3cc(OC)c(OC)cc3CCN2C(=O)Cc2ccccc2)cc1 (stereo not drawn) | inactive: -27.8% | 
Cn1cnnc1SCC(=O)Nc1ccc(C#N)cc1 | inactive: -11% | 
CN(CC(=O)NCc1ccccc1)S(=O)(=O)c1ccc2[nH]c3c(c2c1)CCCC3 | inactive: -11.8% | 
CCc1ccccc1NC(=O)C1(C)Cc2ccccc2C(=O)O1 (stereo not drawn) | inactive: -13.2% | 
CCN(Cc1ccccc1)S(=O)(=O)c1cc(C(=O)Nc2cc(Cl)cc(Cl)c2)ccc1F |  | active: 25.1 µM
COc1ccccc1N1CCN(c2ncnc3c2cnn3-c2cccc(Cl)c2)CC1 | inactive: -6.29% | 
CC(C)(C)C1CCc2c(sc(NC(=O)c3ccc(Cl)cc3)c2C(=O)NCc2ccco2)C1 (stereo not drawn) | inactive: -12.4% | 
COc1ccc(-c2cn3nc(N4CCCC(C(=O)Nc5cc(C)cc(C)c5)C4)sc3n2)cc1 (stereo not drawn) | inactive: -5.27% | 
CC(C)[C@H](C(=O)Nc1ccc(C(=O)NO)cc1)c1ccccc1 | inactive: 162% | 
C#C[C@]1(OC(C)=O)CC[C@H]2[C@@H]3CCC4=C[C@@H](OC(C)=O)CC[C@@H]4[C@H]3CC[C@@]21C | inactive: -24.8% | 
CCN(CC)S(=O)(=O)c1ccc(C(=O)N2CC(=O)Nc3ccc(F)cc3C2c2ccccc2)cc1 (stereo not drawn) | inactive: -15.6% | 
O=C(C1CCN(S(=O)(=O)c2ccc(Br)s2)CC1)N1CCN(c2ccccc2)CC1 | inactive: -12.7% | 
CC(C)(C)OC(=O)N1CCC(c2c(C(=O)NCCc3ccccc3)cnn2-c2ccc(F)cc2)CC1 | inactive: -23.5% | 
COc1ccc(CCN2C(=O)NC(NS(=O)(=O)c3ccc(NC(C)=O)cc3)(C(F)(F)F)C2=O)cc1OC (stereo not drawn) | inactive: -18.9% [at 11.5 µM] | 
COc1cc(NC(=O)c2c(C)oc3c2C2=NCCN2C=N3)cc(OC)c1OC | inactive: -18.1% | 
CCc1ccc(-c2nn(CC(=O)NCc3ccccc3)c3c2cnc2ccc(F)cc23)cc1 | inactive: 44.5% | 
CN(C)c1ccc(/C=C(\C#N)c2nc(-c3ccc(Cl)c(Cl)c3)cs2)cc1 | inactive: -3.97% | 
COc1cc(NC(=O)COCc2cc(-c3ccc4c(c3)OCO4)on2)cc(OC)c1 | inactive: -10.4% | 

Compound | activity change, negative = inhibition | Potency
Cc1ccc(-n2c(=O)c3c(cnn3C)n(Cc3ccccc3F)c2=O)cc1 | inactive: -26.9% | 
Cn1c2ccccc2c2cnn(CC(=O)Nc3ccccc3C(F)(F)F)c(=O)c21 | inactive: 8.35% | 
Cc1ccccc1-c1noc(-c2ccc(N3CCOCC3)c([N+](=O)[O-])c2)n1 | inactive: 14.5% | 
CCN(CC)C(=O)c1sc2c(c1C)c(=O)n(-c1ccc(OC)cc1OC)c(=O)n2CC(=O)c1ccc(Cl)cc1 | inactive: -17.5% | 
CCn1cc(S(=O)(=O)c2ccccc2)c(=O)c2cc(F)c(N3CCN(c4ccccc4)CC3)cc21 | inactive: -17% | 
COc1cc(NC(=O)c2oc3c(c2C)-c2nn(Cc4cccc(Cl)c4)cc2CC3)cc(OC)c1 | inactive: 6.45% | 
Cc1ccc(Cn2c(CN3CCC(C(=O)NCCc4ccccc4)CC3)cc3ccccc32)cc1 | inactive: -20.6% | 
N#Cc1ccc(C(=O)Nc2ccc3c(c2)N(C2CCCC2)C(=O)c2ccccc2S3)cc1 | inactive: -28.2% | 
CCc1nn(CC(=O)Nc2ccc(N(CC)CC)cc2C)c(=O)c2cc3sccc3n12 | inactive: 8.76% | 
CC(C)Sc1ncc(Cl)c(C(=O)N(Cc2ccc(N(C)C)cc2)C2CCS(=O)(=O)C2)n1 (stereo not drawn) | inactive: 0.738% | 
Cc1ccc(-c2noc(-c3ccccc3NC(=O)C3CC(=O)N(c4ccccc4C)C3)n2)cc1 (stereo not drawn) | inactive: 29.7% | 
CC(C)Cn1c(=O)c2ccccc2n2c(CCC(=O)NC(C)c3ccccc3)nnc12 (stereo not drawn) | inactive: 7.84% | 
CCOc1ccc(C2C(C(=O)Nc3ccccc3)=C(C)Nc3nc(SCc4cc(C)ccc4C)nn32)cc1 (stereo not drawn) | inactive: -6.82% | 
COc1cc(-c2nc(Cn3nnc(C(=O)Nc4ccc(C)cc4C)c3C)c(C)o2)cc(OC)c1OC | inactive: 1.67% | 
Cc1oc(-c2ccccc2F)nc1CS(=O)(=O)CC(=O)NCCc1ccc(Cl)cc1 | inactive: -31% | 
COc1ccc(N2CCN(c3oc(-c4ccc(COc5cccc(C)c5)o4)nc3C#N)CC2)cc1 | inactive: -22.4% | 
Cc1ccc(NC(=O)CN(C)S(=O)(=O)c2ccc3[nH]c4c(c3c2)CCCC4)c(Cl)c1 | inactive: -1.75% | 
Cc1cccc(NC(=O)c2sc3nc(N4CCOCC4)c4c(c3c2N)CC(C)(C)OC4)c1 | inactive: 37% | 
COc1ccccc1C(=O)Nc1ccc(OCc2cc(=O)n3ccsc3n2)cc1 | inactive: 6.2% | 
O=C(CSc1nc2c([nH]c3ccccc32)c(=O)n1-c1ccccc1)Nc1ccc2c(c1)OCCO2 | inactive: -32.7% | 

Compound | activity change, negative = inhibition | Potency
Cc1ccc(C)c2sc(N3CCN(C(=O)C(C)(C)C)CC3)nc12 | inactive: 0% | 
CC1=C(C(=O)Nc2ccc(C)cc2Cl)C2(CCCCCC2)OC1=O | inactive: -5.79% | 
CCC(=O)c1cc2c(cc1NC(=O)c1ccccc1F)OCCO2 | inactive: 12.4% | 
COc1ccc([C@@H]2CNC(=O)C2)cc1OC1CCCC1 | inactive: 268% | 
CCOc1ccc(CCNC(=O)c2ccc(-n3c(C)cc4c3CCC(C)C4)cc2)cc1OCC (stereo not drawn) | inactive: -21.2% | 
CCN(CC)CCNC(=O)Nc1ccc2c(c1)N(Cc1ccccc1)C(=O)c1ccccc1S2 | inactive: -22.8% | 
NC(=O)c1ccc2nc(-c3ccc(Oc4ccc(Cl)cc4)cc3)[nH]c2c1 | inactive: -3.54% | 
COc1ccc(N2CC(NC(=O)c3ccc(S(=O)(=O)N4CCOCC4)cc3)CC2=O)cc1OC (stereo not drawn) | inactive: -17.1% | 
CCCCNC(=O)C1CCC(CNS(=O)(=O)c2ccc(Cl)cc2)CC1 (stereo not drawn) | inactive: -1.57% | 
CNC1CCC(N(Cc2cccc(-c3ccncc3)c2)C(=O)c2sc3ccccc3c2Cl)CC1 (stereo not drawn) | inactive: -16.6% | 
CC(=O)NCCn1c(SCC(=O)Nc2ccc(C)cc2)nc2ccccc2c1=O | inactive: 14.6% | 
COc1cccc(-n2c(-c3cccc(F)c3)nc3c(cnn3-c3ccc(C)cc3)c2=O)c1 | inactive: -27.5% | 
COc1ccccc1CNC(=O)CC(c1ccc(OC)c(OC)c1)N1Cc2ccccc2C1=O (stereo not drawn) | inactive: -6.56% | 
CCc1cnc2c(c1SCC(=O)c1ccc(OC)cc1)c(=O)n(C)c(=O)n2C | inactive: -23.4% | 
CCCCN(CCCC)C(=O)C1CCN(S(=O)(=O)c2cccc3nsnc23)CC1 | inactive: -29.2% | 
CCN(Cc1ccccc1)c1ncnc2c1nnn2C | inactive: -11.5% | 
Cc1ccccc1CN1C(=O)c2ccccc2Sc2ccc(C(=O)NC3CCCC3)cc21 | inactive: -27.8% | 
O=S(=O)(NCc1ccc(Cl)cc1)c1ccc(-c2cnc(C3CC3)o2)cc1 | inactive: -18.4% | 
